This is one part of the list.

This assay deals with PfSIP2 AP2 domain 1 (GST-tagged). The assay is described as follows: gcPBM binding intensity (ln(normalized median fluorescence intensity)); higher = stronger DNA binding. The method, boiled down: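 GST-tagged P. falciparum DNA-binding domains produced in E. coli were incubated for 1 h on an Agilent 4 × 180k array of primer-extended double-stranded 36-bp intergenic genomic probes with negative controls. Binding intensity is the highest Masliner-normalised natural-log median intensity across replicate spots of either probe orientation, with bound protein detected by Alexa488 anti-GST antibody at 488 nm.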
In the case of “TTTATTTGATGAACATGTACAAAAAAACAAAGAACA [XGTACX_site823]”, the “gcPBM binding intensity (ln)” value came out at 7.36. As to “TGATATTTTATTATTAAAATATATACATATATATAT [CACACA_negctrl_site1456]”, the “gcPBM binding intensity (ln)” value came to 8.91. To “ATAAAAATAAAATGGACACACATATATACCTATTTG [CACACA_site5761]” belongs 6.92; to “AAGAAAAAAAAAAAAAAAGATACTTTTTTAAAACTA [TGCATGCA_negctrl_site13]”, 6.6; to “TTGCACAGATTAATCAAAAATTTTAAACCAAATATA [XGTACX_negctrl_site38]”, 7.08. To “TATTTACACAAAATAAAATATATTATATATATATAT [TGCATGCA_negctrl_site381]” belongs 8.65; to “AGAATAGAATAAAAAACACACATTTACAACATTATT [CACACA_site3894]”, 6.82; to “TATTTATACATAGGTGGTACTACTTTAAACAAAAAA [XGTACX_site5062]”, 7.23. To “TATATGGAGAGATATGCACACTGTATGAATGCCCCC [CACACA_site8853]” belongs 9.32; to “AAATAAATAATATTCACACATAAAAAAAATGGAGTT [CACACA_site4525]”, 6.77. With “GTGCTTATTTATACATGTACAAATGATAAGTTTGTA [XGTACX_site169]”, the “gcPBM binding intensity (ln)” value was found to be 7.76. “GAAATAAATATATATGCATGTACTTTAATATTATTA [TGCATGCA_site904]”: the “gcPBM binding intensity (ln)” value was determined as 7.12.

On to “TAAATATATTCATAAAGTACAAAGCAAAATTGTCTA [XGTACX_site7274]”, for which the “gcPBM binding intensity (ln)” value was found to be 6.83.

For the sequence “TTTTTTCTTTTATGTGAAATGTAATATTGTTATATA [GTGCAC_negctrl_site715]”, the “gcPBM binding intensity (ln)” value was 6.97. To “AGGTGATTGATATATACACACATACCTATATTTATA [CACACA_site7348]” belongs 6.88; to “TGTTTATTTAATAATATTTTTTTTTTTATTATATTA [XGTACX_negctrl_site56]”, 6.65; to “TTATTAAAATATTCTAGTACATATAAAAGGAGAACA [XGTACX_site4374]”, 7.55. To “ATATATTATTTTAAATGTACTCATAATAGAAATGTC [XGTACX_site40]” belongs 7.32. To “ATATAAAGAAAAGGAACACACAAATATATATATATA [CACACA_site463]” belongs 9.29. As to “CACACAGGTAAAAAGGTGCAGTTGAAATATTCCTCA [GTGCAC_site9730]”, the “gcPBM binding intensity (ln)” value was 11.1. As for “AAATAAAAGGTTGAGAGTACATTTTTGTGTATGTAT [XGTACX_site5547]”, the “gcPBM binding intensity (ln)” value was 7.07.

As to “AGCTCTCAAAATTATTCACACGTGTCCTGTTATATA [CACACA_site5415]”, the “gcPBM binding intensity (ln)” value was 7.19. As for “ATATTTCATTAATGAACACACAAAGAGGTATATAAA [CACACA_site1519]”, the “gcPBM binding intensity (ln)” value is 7.18.

In the case of ATATTTAAAAATATAGTGCAATTATTCTAATGTGTT, the “gcPBM binding intensity (ln)” value was 7.6. To “TATATTTACATTGTAACACACATGAAATATATATAT [CACACA_site61]” belongs 8.17; to “TTTTTTATTGTGATACGTATATTATTTTTTGATAAA [CACACA_negctrl_site1]”, 6.99; to “TGTTGTAAATATGTTTGTACATAAATATATTATTTA [XGTACX_site5442]”, 7.11.

In the case of “TTAATTAATAGACACACACACATATAAATATAGATT [CACACA_site7143]”, the “gcPBM binding intensity (ln)” value amounted to 7.06. To “AAAAAAAAATAATATTGTACACACATAAATTCTTTG [XGTACX_site4315]” belongs 6.98; to “GTGTATTTTCTGCGCACACACATGCAAAAAGAAATA [CACACA_site1148]”, 8.26; to “GTTTTATTAAAAATGTGTACTTAATTATGAAAAAAA [XGTACX_site4689]”, 7.11.

Consider “AAGAAAAAATATAATAATAATAAAATATATATAATA [TGCATGCA_negctrl_site475]”, for which the “gcPBM binding intensity (ln)” value amounted to 6.51.

As for “TTTGTTTTTCATAGTGCACACATAACCAAAAATAGT [CACACA_site9030]”, the “gcPBM binding intensity (ln)” value came out at 10.5. On to “TATTGTTTTGATTGATGTACATGTTTAAAATATATA [XGTACX_site8430]”, for which the “gcPBM binding intensity (ln)” value came out at 7.24. To “TAATCTATTTATATGTGTACCTATTTAGAAATGACA [XGTACX_site5709]” belongs 7.26. To “AAAGTAAATTTAAGCACACACAACGAACTTTTATAC [CACACA_site7008]” belongs 7.42; to “GCGGGTTTATCTTTCGCACACCTTACATTTTAGAAT [CACACA_site2015]”, 7.07. To “AGTTTTATGTAGTGTTGTACTTTATACAAATATATT [XGTACX_site614]” belongs 7.05. As for “ATATCACATTCCACGGTACACACTAAAAGAAAAATC [CACACA_site3611]”, the “gcPBM binding intensity (ln)” value came to 7.35. On to “ATAAATCAAAGGCACACACACAAAAAAAAAAAAAAA [CACACA_site160]”, for which the “gcPBM binding intensity (ln)” value was found to be 7.06. To “TGTTTTTTATATTACTGTACATGTTTTGGAATAATA [XGTACX_site4716]” belongs 7.12; to “TATTCCTTCTACAATTAAATAATTATAATAAATATA [GTGCAC_negctrl_site26]”, 7.32.

For “GTATCATTAAATTATTGTACATATATATATATATAT [XGTACX_site8809]”, the “gcPBM binding intensity (ln)” value was 9.44. For the sequence “TATTTTTGTATATATTTATTCTTATTTTACAGGAAA [TGCATGCA_negctrl_site472]”, the “gcPBM binding intensity (ln)” value came out at 6.92. For “AACAAAAATAGAAACACACATACATTGGTTTTCTTT [CACACA_site2534]”, the “gcPBM binding intensity (ln)” value was found to be 6.89. To “ACATTTAAGTTTAGCTGTACATATTCATCATAATTA [XGTACX_site37]” belongs 7.27; to “AAAAAAAAAAAAAAAAAAAAAAAAAAATATATATAT [CACACA_negctrl_site271]”, 8.99.

As to “TGCTACTTATAAATAGAACACACATAAGTGTATTTG [CACACA_site9253]”, the “gcPBM binding intensity (ln)” value was found to be 6.81. To “AAGAAAAAAAAAAAAAAAAAAAAAAAAAAGGAAAAA [GTGCAC_negctrl_site174]” belongs 6.86. To “ATAAAGCCATACAATACACACATTTGACATGTCCGT [CACACA_site7523]” belongs 6.98; to “ATACTTCAATCTATTTGTACATATTTTTTAAAACCA [XGTACX_site2328]”, 7.21. To “GAAATTTTTAAATACAGTACACACATGGGTTTAAAT [XGTACX_site6124]” belongs 6.98; to “AATAATAAAAAATATACACACATATATAAATAAATA [CACACA_site6164]”, 6.84; to “TAAGAAAAAAAATAATGTACATATGTATTTGAGAAA [XGTACX_site3569]”, 6.99. Take “TATATATATATATATTGTACTAATTGTGCAAATGAG [XGTACX_site682]”: the “gcPBM binding intensity (ln)” value was found to be 9.7. To “TATATTAATAGACACACACACATATTTATATTTATA [CACACA_site6859]” belongs 7.14.

These data come from the supplement of paper PMC11417369.
